In PubChem BioAssay AID1508624 (National Center for Advancing Translational Sciences (NCATS), 2021):
About 120 (0.25%) of roughly 48,000 compounds were called active. Not shown: some 4% with an inconclusive outcome. Calls follow the shape of the dose curve; as a rule, active = well fitted activation curve with a large enough effect; inconclusive = small, poorly fitted or top-dose-only effect, or another doubt; inactive = no such curve, though single readings can be large or run the other way. The list shows a part of the results.

Assay: Primary qHTS for Identification of Small Molecule Activators of Huntingtin-Antisense Promoter Activity; also: nearly all actives have a fitted effect of over 55% in size
Settings: HEK293 HTT-AS promoter firefly luciferase reporter, 24 h; series mostly up to 57.5 µM; activity change, positive = activation: at the top concentration
Procedure, shortened: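 HEK293 cells carrying firefly luciferase reporters were seeded at 2,500 per well in Opti-MEM and cultured for 24 h. They were then treated with compounds at up to 57.5 uM final for 24 h at 37 degrees C before Dual-Glo luminescence readout.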

Row | SMILES | activity change, positive = activation
1 | CCN1CC(CCN2CCOCC2)C(c2ccccc2)(c2ccccc2)C1=O (centres undefined) | inactive: -12.8%
2 | Cn1nc(-c2ccccc2F)c2cc(C(=O)NCCc3ccc(Cl)cc3)sc21 | inactive: -31.6%
3 | COc1ccc(-c2noc(N(c3cccc(Cl)c3)c3nc(-c4ccc(OC)c(OC)c4)no3)n2)cc1OC | inactive: -8.58%
4 | CCOc1cccc(C(=O)N2CCC(c3nc4ccccc4s3)CC2)c1 | inactive: -7.98%
5 | O=C(c1ccc(Br)cc1)N1CCN(CCc2ccncc2)CC1 | inactive: -22.2%
6 | CCOc1ccc(-c2nc(SCC(=O)c3ccccc3)n[nH]2)cc1 | inactive: 0.0514%
7 | CC(=O)c1ccc(NC(=O)CSc2ccc(-c3cccs3)nn2)cc1 | inactive: 12.9%
8 | CN(C)c1ccc(CNC(=O)c2cnc3sc(N4CCOCC4)nn3c2=O)cc1 | inactive: -10.5%
9 | Brc1cccc(-c2nnc(CN3CCN(c4ccccn4)CC3)o2)c1 | inactive: -1.18%
10 | Cc1ccc(S(=O)(=O)Cc2ccc(C(=O)NCCc3ccc(Cl)cc3)o2)cc1 | inactive: -23.6%
11 | CCc1ccccc1Nc1nn2c(=O)c3ccc(C(=O)NC(C)c4ccccc4)cc3nc2s1 (centres undefined) | inactive: -37.7%
12 | COc1cc2[nH]c(=O)n(CCCC(=O)NCc3ccc(Cl)cc3)c(=O)c2cc1OC | inactive: -17.7%
13 | Cc1ccc(NC(=O)C(=O)NCC(c2cccnc2)N2CCN(c3ccccc3F)CC2)cc1Cl (centres undefined) | inactive: -23.7%
14 | COc1ccccc1NC(=O)c1sc2nc(C)c(C(=O)Nc3ccc(C)cc3C)c(-c3cccs3)c2c1N | inactive: -7.19%
15 | CCOc1cc2[nH]c(=O)n(CCCCC(=O)N3CCN(c4cccc(Cl)c4)CC3)c(=O)c2cc1OCC | inactive: -15.2%
16 | CCc1ccc(CN2CCc3nc(Nc4ccccc4)ncc3C2)cc1 | inactive: -9.66%
17 | Cc1cccc2sc(N(Cc3cccnc3)C(=O)c3cccs3)nc12 | inactive: 10.6%
18 | CCOC(=O)c1c(C)[nH]c(CCC(=O)NCc2ccc(F)cc2)c1C | inactive: -8.09%
19 | CC(C)(C)C1CCc2c(sc3nc(-c4cc5cc(Br)ccc5oc4=O)[nH]c(=O)c23)C1 (centres undefined) | inactive: -5.67%
20 | CC(=O)Nc1ccc(NC(=O)c2cc3sccc3n2Cc2ccc(F)cc2)cc1 | inactive: 4.04%

Row | SMILES | activity change, positive = activation
21 | Cc1cnc(CNC(=O)c2c(=O)c3ccc(N4CCCN(C)CC4)nc3n3c2sc2ccccc23)cn1 | inactive: -23% [at 25.1 µM, percent change from vehicle, -100% = no light]
22 | COC(=O)c1ccc(NC(=O)CN2C(=O)CCc3cc(S(=O)(=O)N4CCCCC4)ccc32)cc1 | inactive: -30.4%
23 | COc1ccc(S(=O)(=O)NCC(c2ccco2)N2CCN(c3ccccc3)CC2)cc1OC (centres undefined) | inactive: -25.8%
24 | CCOC(=O)c1cc(-c2ccccc2)n(CCCC(=O)Nc2cccc(C)c2C)c1C | inactive: -32%
25 | Cc1[nH]c(=O)[nH]c(=O)c1S(=O)(=O)N1CCN(c2ccccc2Cl)CC1 | inactive: -18.5%
26 | O=C(O)CCn1c(=O)c2cccn2c2cccnc21 | inactive: -7.77%
27 | N#Cc1ccccc1Cn1c(=O)n(-c2cccc(C(F)(F)F)c2)c(=O)c2sccc21 | inactive: -19.9%
28 | O=C(NC(=O)c1ccc(F)cc1)Nc1ccc(-c2cc(C(F)(F)F)nn2-c2ccccc2)cc1 | inactive: -6.37%
29 | Cc1oc2c(c(C)cc3oc(=O)c(CC(=O)NCCc4ccccc4)c(C)c32)c1C | inactive: -18.3%
30 | CN1C(C(=O)c2ccccc2)=C(OC(=O)c2ccc(Br)cc2)c2ccccc2S1(=O)=O | inactive: -18.6%
31 | Cc1ccc(NC(=O)Nc2ccc3c(c2)N(C)C(=O)c2ccccc2S3)c(C)c1 | inactive: 1.63%
32 | CCOC(=O)c1c(C)[nH]c(C)c1S(=O)(=O)NCC(=O)Nc1cc(C)ccc1OC | inactive: 3.25%
33 | COc1ccccc1NC(=O)c1c(NCc2ccc(OC)c(OC)c2OC)sc2c1CCCC2 | inactive: -26.1%
34 | COc1ccc(N2CCN(S(=O)(=O)CCNC(=O)C(c3ccccc3)c3ccccc3)CC2)cc1 | inactive: -21.3%
35 | CCOC(=O)c1ccc(Nc2nc3ccccc3nc2NS(=O)(=O)c2ccc(Cl)cc2)cc1 | inactive: -20.6%
36 | CCN1CCN(CCCNC(=O)c2cnn(-c3ccccc3)c2C2CCN(C(=O)OC(C)(C)C)CC2)CC1 | inactive: -5.29%
37 | Cc1ccc(-c2c(CN3CCN(c4cccc(C(F)(F)F)c4)CC3)csc2C)cc1 | inactive: -14.4%
38 | COc1cccc(C2C=C(c3ccc(C)c(C)c3)Nc3nnnn32)c1OC (centres undefined) | inactive: -7.05%
39 | O=C(O)CCCC[C@@H]1SC[C@@H]2NC(=O)N[C@@H]21 | inactive: -5.89%
40 | CN1CCN(c2cc3c(cc2F)c(=O)c(C(=O)O)cn3-c2ccc(F)cc2)CC1 | inactive: -5.32%

Row | SMILES | activity change, positive = activation
41 | Cc1sc2ncn(CC(=O)N(C)c3ccc(Br)cc3)c(=O)c2c1S(=O)(=O)N1CCC(C)CC1 | inactive: -3.5%
42 | Cc1nc2c(C(=O)NCc3ccccc3)c[nH]n2c(=O)c1Cc1ccccc1Cl | inactive: -30.5%
43 | Cc1cccc(OCC(O)CNC(C)(C)C)c1C (centres undefined) | inactive: -14%
44 | Cc1cccc(NC(=O)c2c(C)oc3ncn(CC(C)C)c(=O)c23)n1 | inactive: -2.29%
45 | CC(=O)N1CCc2cc(S(=O)(=O)CCC(=O)N3CCN(c4cccc(C)c4C)CC3)ccc21 | inactive: -7.39%
46 | O=C(NCCc1ccccc1)c1cc(-c2ccc(Cl)cc2)on1 | inactive: 4.2%
47 | COc1cccc(NC(=O)Nc2cccc(-c3cn4cccnc4n3)c2)c1 | inactive: 6.06%
48 | CCOc1ccc(-c2nnc(Nc3ccc(S(N)(=O)=O)cc3)c3ccccc23)cc1 | inactive: 6.31% [at 11.5 µM, percent change from vehicle, -100% = no light]
49 | Cc1cc(C)c(NC(=O)CSc2nc(=O)[nH]c3c2CCCC3)c(C)c1 | inactive: -21.5%
50 | CC(C)(C)c1ccc(OCC(=O)N2CCC(c3nc4ccccc4s3)CC2)cc1 | inactive: 2.91% [at 11.5 µM, percent change from vehicle, -100% = no light]
51 | CCCOC1(C(F)(F)F)NC(=O)N(c2ccc(Cl)cc2)C1=O (centres undefined) | inactive: -24.7%
52 | CCC(=O)N1c2ccccc2CC1C(=O)NCc1ccc(OC(C)C)cc1 (centres undefined) | inactive: -26.9%
53 | CCN(CCCNC(=O)Cn1ncc2c([nH]c3ccc(C)cc32)c1=O)c1cccc(C)c1 | inactive: -2.77%
54 | COc1ccc(C2CC(=O)Nc3c2c(C)nn3-c2nncc(-c3ccc(C)cc3)n2)c(OC)c1OC (centres undefined) | inactive: -14.9%
55 | Cc1csc2nc(-c3cccc(NC(=O)C(C)C)c3)cn12 | inactive: 17.8%
56 | CCc1ccccc1NC(=O)c1ccc2c(c1)N(Cc1cccc(Cl)c1)C(=O)c1ccccc1S2(=O)=O | inactive: -12.7%
57 | CCOc1ccc(-c2nc(SCC(=O)Nc3ccc4c(c3)OCO4)c(-c3ccc(F)cc3)[nH]2)cc1 | inactive: -11.6%
58 | CCOC(=O)Nc1ccc(NCc2ccc(F)cc2)nc1N | inactive
59 | Cc1ccc(C)c(CN2C(=O)C(=O)c3ccccc32)c1 | inactive: -25.2%
